In PMC12772503:
Results are given in words; binding and its absence hold for the method and conditions named. In cells and extracts the contact can be indirect. Some results given as binding are weak or reduced against the parent protein; the word gives no strength. Sequences can lack the tags named with a protein.

Chains of the proteins cited; added tags and fusions are not shown. Lines headed by an entry give the natural chain unless they say otherwise; changes in a name come on top.
UniProt O18333: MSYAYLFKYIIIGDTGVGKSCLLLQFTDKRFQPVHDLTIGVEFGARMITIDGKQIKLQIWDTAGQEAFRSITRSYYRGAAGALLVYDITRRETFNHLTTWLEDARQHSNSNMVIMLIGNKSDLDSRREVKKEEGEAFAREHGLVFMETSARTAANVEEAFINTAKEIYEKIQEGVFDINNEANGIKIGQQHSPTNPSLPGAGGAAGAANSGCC

Legend:
Test in all cases: co-IP; lysates (1.0 mg/ml) of transfected HEK293 cells on Pierce anti-HA magnetic beads, 2 h, 4°C; 20 mM HEPES pH 7.4, 130 mM NaCl, 2 mM MgCl2, 0.1% saponin; 60 uM GppNHp with Rab2(wt) and Rab2[Q65L] but not Rab2[S20N]; eluted with 100 mM NaOH or HA peptide; Western blot; in Fig. S2 E cells treated with 2 uM MLi-2 for 2 h or co-transfected with LRRK2^G2019S
[1] = molecular target: HA-Rab2^Q65L (Drosophila) (UniProt O18333)
WT HA-Rab2 (Drosophila) = WT HA-Rab2 (Drosophila) (UniProt O18333)
[2] = molecular target: T1, HA-Syd-N2 (Syd^1-529) (Drosophila) (UniProt Q9GQF1)
T1 sequence: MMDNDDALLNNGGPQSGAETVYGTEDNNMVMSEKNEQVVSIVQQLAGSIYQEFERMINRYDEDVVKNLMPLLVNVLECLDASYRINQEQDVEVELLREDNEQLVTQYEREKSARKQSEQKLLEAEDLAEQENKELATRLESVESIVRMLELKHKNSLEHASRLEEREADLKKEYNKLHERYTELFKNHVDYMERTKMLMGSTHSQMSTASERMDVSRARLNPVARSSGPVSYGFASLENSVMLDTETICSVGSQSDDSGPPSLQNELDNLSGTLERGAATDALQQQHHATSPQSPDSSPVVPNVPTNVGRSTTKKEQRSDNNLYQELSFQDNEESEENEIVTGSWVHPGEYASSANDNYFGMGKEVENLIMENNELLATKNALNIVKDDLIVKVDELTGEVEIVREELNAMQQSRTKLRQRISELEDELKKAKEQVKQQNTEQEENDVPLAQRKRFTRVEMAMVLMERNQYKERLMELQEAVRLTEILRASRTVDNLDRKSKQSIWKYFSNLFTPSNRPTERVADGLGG

[3] = molecular target: T2, HA-Syd-N4 (Syd^1-485) (Drosophila) (UniProt Q9GQF1)
T2 sequence: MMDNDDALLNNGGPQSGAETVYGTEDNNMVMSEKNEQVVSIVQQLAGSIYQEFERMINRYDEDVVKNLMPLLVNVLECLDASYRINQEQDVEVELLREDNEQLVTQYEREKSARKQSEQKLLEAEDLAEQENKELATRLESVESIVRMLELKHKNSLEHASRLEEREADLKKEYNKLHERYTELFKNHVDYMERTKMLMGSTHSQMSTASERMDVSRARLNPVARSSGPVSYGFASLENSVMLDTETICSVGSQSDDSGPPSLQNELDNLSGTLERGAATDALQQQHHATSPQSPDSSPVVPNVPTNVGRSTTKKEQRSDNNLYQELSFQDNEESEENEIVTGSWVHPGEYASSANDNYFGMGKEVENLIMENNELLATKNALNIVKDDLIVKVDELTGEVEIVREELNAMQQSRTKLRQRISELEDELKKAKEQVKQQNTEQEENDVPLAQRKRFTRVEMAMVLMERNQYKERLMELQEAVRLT

[4] = molecular target: T3, HA-Syd-N5 (Syd^1-198) (Drosophila) (UniProt Q9GQF1)
T3 sequence: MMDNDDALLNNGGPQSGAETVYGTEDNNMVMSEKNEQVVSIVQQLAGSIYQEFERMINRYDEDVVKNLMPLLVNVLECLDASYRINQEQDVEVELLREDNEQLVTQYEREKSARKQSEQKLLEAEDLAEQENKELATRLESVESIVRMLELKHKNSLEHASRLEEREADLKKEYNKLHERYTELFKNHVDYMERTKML

Binder | binding [1] | binding (WT HA-Rab2 (Drosophila)) | binding [2] | binding [3] | binding [4]
myc-tagged full-length Syd (protein, UniProt Q9GQF1 1-1227) MMDNDDALLNNGGPQSGAETVYGTEDNNMVMSEKNEQVVSIVQQLAGSIYQEFERMINRYDEDVVKNLMPLLVNVLECLDASYRINQEQDVEVELLREDNEQLVTQYEREKSARKQSEQKLLEAEDLAEQENKELATRLESVESIVRMLELKHKNSLEHASRLEEREADLKKEYNKLHERYTELFKNHVDYMERTKMLMGSTHSQMSTASERMDVSRARLNPVARSSGPVSYGFASLENSVMLDTETICSVGSQSDDSGPPSLQNELDNLSGTLERGAATDALQQQHHATSPQSPDSSPVVPNVPTNVGRSTTKKEQRSDNNLYQELSFQDNEESEENEIVTGSWVHPGEYASSANDNYFGMGKEVENLIMENNELLATKNALNIVKDDLIVKVDELTGEVEIVREELNAMQQSRTKLRQRISELEDELKKAKEQVKQQNTEQEENDVPLAQRKRFTRVEMAMVLMERNQYKERLMELQEAVRLTEILRASRTVDNLDRKSKQSIWKYFSNLFTPSNRPTERVADGLGGGPMFRHTGGGSPAHSHGSPSRGSGGGDNRLALTSGQPPVHPASAGLANALIMPKDYAEEGSSERISARRREQYRQLRAHVQKEDGRLHAYGWSLPINKASQEANPNRHSGGVPVPVYCNPLAEASPHMKVFCAAGVNLHGGFTKNGQSLIPANSPYAPKSTLKIAEITSPTADQSMEALDRQMARVSLETLEPETQLSSFVWICTSTHAASTVSVVDANQSATVLDAFPICASHLLCIASVQGAMESDYALLEQSEVVKAGEMLQRPGEGTELLGKVEFVRVKPKSDDEQNSNEKQQQEEEEAKEATEKSNEQLPAVSAEEPLGNVEAIKIRQPLPGAPQRLSTDGNQTNNNNNSSSSSNLLFATKSLNPILETKDRDEPAMSSVGPTMWLGAQDGWLYVHSSVGRWHECLHRVLLPDAVLAIVHVEARVVVALANAQLAVFRRQTDGQWDLNSYHLVTLGDRNHSIRCLCVAGERIWAAHRNKIFIVDPVSLNIVHSLDAHPRKESQVRQMAATGAGVWVSIRLDSTLRLYNTHTFEHKQDVDIEPYVSKMLGTGKLGFSFVRITALMVSCNRLWIGTSNGVIISVPLAEVQPKSSSDPHGQMPLCCMANAQLSFHGHRDAVKFFVSVPMLQQPNLNGGLTFTNKRPDMLVMCGGEGYIDFRINDNDMENSIQLEPNQTIENRGDKSYLIVWHVSQR | binds | binds |  |  | 
myc-Syd-N2 (Syd^1-529) (domain or fragment, UniProt Q9GQF1 1-529) MMDNDDALLNNGGPQSGAETVYGTEDNNMVMSEKNEQVVSIVQQLAGSIYQEFERMINRYDEDVVKNLMPLLVNVLECLDASYRINQEQDVEVELLREDNEQLVTQYEREKSARKQSEQKLLEAEDLAEQENKELATRLESVESIVRMLELKHKNSLEHASRLEEREADLKKEYNKLHERYTELFKNHVDYMERTKMLMGSTHSQMSTASERMDVSRARLNPVARSSGPVSYGFASLENSVMLDTETICSVGSQSDDSGPPSLQNELDNLSGTLERGAATDALQQQHHATSPQSPDSSPVVPNVPTNVGRSTTKKEQRSDNNLYQELSFQDNEESEENEIVTGSWVHPGEYASSANDNYFGMGKEVENLIMENNELLATKNALNIVKDDLIVKVDELTGEVEIVREELNAMQQSRTKLRQRISELEDELKKAKEQVKQQNTEQEENDVPLAQRKRFTRVEMAMVLMERNQYKERLMELQEAVRLTEILRASRTVDNLDRKSKQSIWKYFSNLFTPSNRPTERVADGLGG | binds | binds |  |  | 
V5-tagged DLIC (protein, UniProt Q9VZ20 1-493) MAMNSGTQTNALTSSFTMKKKDAAAEKENLWSAILNEVQTQGSTKLPSNKSVLVLGDNATGKTTLIAKLQGVEDPKKGSGLEYAYIDVKDEYRDDMTRLGVWVLDGDPGHTNLLHYALNETNYAHTLVILTVSMTQPWGWLEQLNHWIKVLGQHIDSLQLDAKEKEAARQRLTTTWQSYCEVGDDLDPGSPVKRTMRNNSIDEDDLLPLTEDALITNLGLDIVVVVTKTDYMTTLEKEYEYRDEHFDFIQQWIRNFCLRHGTSLFYTSVKEDKNCDVLYKYLTHRIYGLPFRTPALVVEKDAVLIPAGWDSLKKISILYENMHGVKAENPYTDIIKSPPTRKAVSNREAEVQTEDEQAFLARQQEILKQGDQVRGESPLRSQGVGSNKSGPRTPGTTGQSSPKKIDPKLTPATPGAEGVLANFFNSLLHKKSGSPGTGGPGGAGNPAGPGRTANGTDAVMTPEKLAVRTDAAAELDRLSRSVKKEIDMSQSEC |  |  | binds | binds | binds
myc-Syd-C1 (Syd^530-1226) (domain or fragment, UniProt Q9GQF1 530-1226) GPMFRHTGGGSPAHSHGSPSRGSGGGDNRLALTSGQPPVHPASAGLANALIMPKDYAEEGSSERISARRREQYRQLRAHVQKEDGRLHAYGWSLPINKASQEANPNRHSGGVPVPVYCNPLAEASPHMKVFCAAGVNLHGGFTKNGQSLIPANSPYAPKSTLKIAEITSPTADQSMEALDRQMARVSLETLEPETQLSSFVWICTSTHAASTVSVVDANQSATVLDAFPICASHLLCIASVQGAMESDYALLEQSEVVKAGEMLQRPGEGTELLGKVEFVRVKPKSDDEQNSNEKQQQEEEEAKEATEKSNEQLPAVSAEEPLGNVEAIKIRQPLPGAPQRLSTDGNQTNNNNNSSSSSNLLFATKSLNPILETKDRDEPAMSSVGPTMWLGAQDGWLYVHSSVGRWHECLHRVLLPDAVLAIVHVEARVVVALANAQLAVFRRQTDGQWDLNSYHLVTLGDRNHSIRCLCVAGERIWAAHRNKIFIVDPVSLNIVHSLDAHPRKESQVRQMAATGAGVWVSIRLDSTLRLYNTHTFEHKQDVDIEPYVSKMLGTGKLGFSFVRITALMVSCNRLWIGTSNGVIISVPLAEVQPKSSSDPHGQMPLCCMANAQLSFHGHRDAVKFFVSVPMLQQPNLNGGLTFTNKRPDMLVMCGGEGYIDFRINDNDMENSIQLEPNQTIENRGDKSYLIVWHVSQ | no binding |  |  |  | 
